Results: the supplement of paper PMC4967469
The IC50 comes from the fitted curve, where viability falls to half of the control; a fit beyond the top or the lowest dose is shown as a bound at that dose. The AUC spans the tested range (256-fold, ending at the top dose) of the same fit; the more sensitive the line, the further below 1. An inferred top dose is not printed in the source and was worked back from the curve model.

Compound: C=CC(=O)Nc1cccc(Nc2nc(NC3CCC(N(C)C)CC3)nc3c2ncn3C(C)C)c1 [WZ3105]
Test: Viability of human cancer cell lines after 72 h of drug (GDSC screen)
Conditions: top dose inferred
Procedure: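 Human cancer cell lines in 384-well plates, medium with 10% serum, drug for 72 h over a 256-fold dose range (nine 2-fold or five 4-fold steps up to the top dose). Adherent lines were fixed and stained with the nucleic acid dye Syto60, suspension lines read with resazurin; signal relative to control wells, capped at 0 and 100%. One two-parameter sigmoid per drug and line, fitted in a mixed model over all curves with the slope shared within a line.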

| Cell Line | AUC | IC50 [nM] |
| --- | --- | --- |
| BICR31 (head and neck, adherent, top dose 1.28 µM) | 0.876 | > 1280 |
| BICR78 (head and neck, adherent, top dose 1.28 µM) | 0.922 | > 1280 |
| BL-41 (Burkitt lymphoma, suspension, top dose 1.28 µM) | 0.497 | 78.7 |
| BPH-1 (prostate, adherent, top dose 1.28 µM) | 0.542 | 105 |
| BT-20 (breast, adherent, top dose 1.28 µM) | 0.868 | > 1280 |
| BT-474 (breast, adherent, top dose 1.28 µM) | 0.742 | 433 |
| BT-483 (breast, adherent, top dose 10.24 µM) | 0.666 | 2820 |
| BV-173 (chronic myeloid leukaemia, suspension, top dose 1.28 µM) | 0.575 | 125 |
| Becker (glioma, adherent, top dose 1.28 µM) | 0.887 | > 1280 |
| BxPC-3 (pancreas, adherent, top dose 1.28 µM) | 0.735 | 412 |
| C2BBe1 (large intestine, adherent, top dose 1.28 µM) | 0.891 | > 1280 |
| C3A (liver, adherent, top dose 1.28 µM) | 0.988 | > 1280 |
| C32 (melanoma, adherent, top dose 1.28 µM) | 0.764 | 495 |
| C-4-I (cervix, adherent, top dose 1.28 µM) | 0.917 | > 1280 |
| C-33-A (cervix, adherent, top dose 1.28 µM) | 0.876 | > 1280 |
| CA46 (Burkitt lymphoma, suspension, top dose 1.28 µM) | 0.568 | 125 |
| CADO-ES1 (Ewing sarcoma, suspension, top dose 1.28 µM) | 0.954 | > 1280 |
| CAKI-1 (kidney, adherent, top dose 1.28 µM) | 0.97 | > 1280 |
| CAL-12T (non-small cell lung carcinoma, adherent, top dose 1.28 µM) | 0.805 | 737 |
| CAL-27 (head and neck, adherent, top dose 1.28 µM) | 0.782 | 545 |
| CAL-29 (bladder, adherent, top dose 1.28 µM) | 0.886 | > 1280 |
| CAL-33 (head and neck, adherent, top dose 1.28 µM) | 0.857 | 1040 |
| CAL-39 (cervix, adherent, top dose 1.28 µM) | 0.933 | > 1280 |
| CAL-51 (breast, adherent, top dose 1.28 µM) | 0.975 | > 1280 |
| CAL-54 (kidney, adherent, top dose 1.28 µM) | 0.94 | > 1280 |
| CAL-62 (thyroid, adherent, top dose 1.28 µM) | 0.943 | > 1280 |
| CAL-72 (osteosarcoma, adherent, top dose 1.28 µM) | 0.984 | > 1280 |

| Cell Line | AUC | IC50 [nM] |
| --- | --- | --- |
| CAL-78 (chondrosarcoma, adherent, top dose 1.28 µM) | 0.947 | > 1280 |
| CAL-85-1 (breast, adherent, top dose 1.28 µM) | 0.706 | 364 |
| CAL-120 (breast, adherent, top dose 1.28 µM) | 0.842 | > 1280 |
| CAL-148 (breast, suspension, top dose 1.28 µM) | 0.79 | 521 |
| CAMA-1 (breast, adherent, top dose 1.28 µM) | 0.778 | 658 |
| CAPAN-1 (pancreas, adherent, top dose 1.28 µM) | 0.742 | 433 |
| CAS-1 (glioma, adherent, top dose 1.28 µM) | 0.798 | 886 |
| CCF-STTG1 (glioma, adherent, top dose 1.28 µM) | 0.83 | 809 |
| CCK-81 (large intestine, adherent, top dose 10.24 µM) | 0.886 | 10100 |
| CCRF-CEM (lymphoblastic leukaemia, suspension, top dose 1.28 µM) | 0.537 | 99.3 |
| CESS (acute myeloid leukaemia, suspension, top dose 1.28 µM) | 0.683 | 239 |
| CFPAC-1 (pancreas, adherent, top dose 1.28 µM) | 0.895 | > 1280 |
| CGTH-W-1 (thyroid, adherent, top dose 1.28 µM) | 0.871 | 1190 |
| CHL-1 (melanoma, adherent, top dose 1.28 µM) | 0.872 | 1100 |
| CHP-126 (neuroblastoma, suspension, top dose 1.28 µM) | 0.902 | > 1280 |
| CHP-134 (neuroblastoma, suspension, top dose 1.28 µM) | 0.832 | 1150 |
| CHP-212 (neuroblastoma, adherent, top dose 1.28 µM) | 0.988 | > 1280 |
| CHSA0011 (chondrosarcoma, adherent, top dose 1.28 µM) | 0.74 | 524 |
| CHSA0108 (chondrosarcoma, adherent, top dose 1.28 µM) | 0.858 | > 1280 |
| CHSA8926 (chondrosarcoma, adherent, top dose 1.28 µM) | 0.857 | > 1280 |
| CL-11 (large intestine, adherent, top dose 1.28 µM) | 0.987 | > 1280 |
| CMK (acute myeloid leukaemia, suspension, top dose 1.28 µM) | 0.776 | 433 |
| COLO-205 (large intestine, suspension, top dose 1.28 µM) | 0.644 | 199 |
| COLO-320-HSR (large intestine, suspension, top dose 1.28 µM) | 0.991 | > 1280 |
| COLO-668 (small cell lung carcinoma, adherent, top dose 1.28 µM) | 0.953 | > 1280 |
| COLO-678 (large intestine, semi-adherent, top dose 1.28 µM) | 0.946 | > 1280 |
| COLO-679 (melanoma, adherent, top dose 1.28 µM) | 0.859 | 1270 |

| Cell Line | AUC | IC50 [nM] |
| --- | --- | --- |
| COLO-680N (oesophagus, adherent, top dose 1.28 µM) | 0.875 | > 1280 |
| COLO-684 (endometrium, suspension, top dose 1.28 µM) | 0.613 | 170 |
| COLO-783 (melanoma, adherent, top dose 1.28 µM) | 0.898 | > 1280 |
| COLO-792 (melanoma, adherent, top dose 1.28 µM) | 0.91 | > 1280 |
| COLO-800 (melanoma, adherent, top dose 1.28 µM) | 0.711 | 309 |
| COLO-824 (breast, adherent, top dose 1.28 µM) | 0.706 | 310 |
| COLO-829 (melanoma, adherent, top dose 1.28 µM) | 0.86 | > 1280 |
| COR-L23 (large cell lung carcinoma, adherent, top dose 1.28 µM) | 0.67 | 235 |
| COR-L88 (small cell lung carcinoma, adherent, top dose 1.28 µM) | 0.823 | 954 |
| COR-L95 (small cell lung carcinoma, adherent, top dose 1.28 µM) | 0.717 | 366 |
| COR-L105 (lung adenocarcinoma, adherent, top dose 1.28 µM) | 0.83 | 1060 |
| COR-L279 (small cell lung carcinoma, suspension, top dose 1.28 µM) | 0.636 | 181 |
| COR-L303 (small cell lung carcinoma, suspension, top dose 1.28 µM) | 0.676 | 244 |
| COR-L311 (small cell lung carcinoma, suspension, top dose 1.28 µM) | 0.515 | 88.2 |
| COR-L321 (lung, suspension, top dose 1.28 µM) | 0.702 | 296 |
| CP50-MEL-B (melanoma, adherent, top dose 1.28 µM) | 0.967 | > 1280 |
| CP66-MEL (melanoma, adherent, top dose 1.28 µM) | 0.947 | > 1280 |
| CPC-N (small cell lung carcinoma, suspension, top dose 1.28 µM) | 0.714 | 344 |
| CS1 (bone, adherent, top dose 1.28 µM) | 0.569 | 126 |
| CTB-1 (B-cell lymphoma, suspension, top dose 1.28 µM) | 0.467 | 63.1 |
| CTV-1 (acute myeloid leukaemia, suspension, top dose 10.24 µM) | 0.199 | 105 |
| CW-2 (large intestine, adherent, top dose 10.24 µM) | 0.959 | > 10200 |
| Ca9-22 (head and neck, adherent, top dose 1.28 µM) | 0.805 | 592 |
| Ca-Ski (cervix, adherent, top dose 1.28 µM) | 0.542 | 106 |
| CaR-1 (large intestine, adherent, top dose 1.28 µM) | 0.836 | > 1280 |
